# Assay results taken from the supplement of paper PMC12217912.
# Some of the results follow. The full chains were built here from the parent and the listed change. Values near 0.05 are background.
# B1: TEV protease; numbered along this chain (parent)
# chain: MGESLFKGPRDYNPISSSICHLTNESDGHTTSLYGIGFGPFIITNKHLFRRNNGTLVVQSLHGVFKVKDTTTLQQHLVDGRDMIIIRMPKDFPPFPQKLKFREPQREERICLVTTNFQTKSMSSMVSDTSCTFPSGDGIFWKHWIQTKDGQCGSPLVSTRDGFIVGIHSASNFTNTNNYFTSVPKNFMELLTNQEAQQWVSGWRLNADSVLWGGHKVFMVKPEEPFQPVKEATQL
# Variants of: B1
# Assay: raw area under fraction-flipped curve 0-4 h after induction (AUC4h, not background-subtracted), DNA-recorder readout of cleavage of the substrate (dimensionless); higher = more cleavage of the substrate by the protease variant
# Settings: temperature: 34 °C; time window: 0-4 h after rhamnose induction
# Method: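 In vivo DNA recorder in E. coli TOP10(DE3) ΔrhaA at 34 °C. Each TEVp single-site mutant (parent TEVp 0) is paired with a single-site variant of the 7-mer TEVs (canonical ENLYFQ|S). The substrate sits between flexible linkers in a Bxb1-sfGFP-TEVs-SsrA fusion, so cleavage stabilises Bxb1 and speeds flipping of a recombination array, read by NGS. The value is the raw area under the fraction-flipped curve over 0-4 h after rhamnose induction (AUC4h), with ≥20 reads per time point. It is not background-subtracted; inactive controls average about 0.047.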
# 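Also: Bxb1 expression induced with 0.2% (w/v) L-rhamnose at OD600 near 0.5, cultures sampled hourly, flipped fraction per protease–substrate barcode pair counted by paired-end Illumina sequencing.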
Variant,area with substrate ENLYFQA,area with substrate ENLYFQC,area with substrate ENLYFQD,area with substrate ENLYFQF,area with substrate ENLYFQG,area with substrate ENLYFQH,area with substrate ENLYFQI,area with substrate ENLYFQK,area with substrate ENLYFQL,area with substrate ENLYFQM,area with substrate ENLYFQN,area with substrate ENLYFQP,area with substrate ENLYFQR,area with substrate ENLYFQS,area with substrate ENLYFQT,area with substrate ENLYFQV,area with substrate ENLYFQW,area with substrate ENLYFQY,area with substrate ENLYFQQ,area with substrate ENLYFQE
T44A,0.0759,0.111,0.0415,0.0592,0.0819,0.0742,0.0192,0.0567,0.0604,0.0644,0.0502,0.0424,0.059,0.0909,0.0739,0.0608,0.0516,0.0674,–,–
T44F,0.053,0.0571,0.0597,0.0348,–,0.0529,0.0713,–,0.0609,0.0551,0.0597,–,0.0501,0.0541,0.0455,–,0.0347,–,–,–
K46S,0.107,0.0878,0.0657,0.0688,0.119,–,0.0561,0.0603,0.0581,0.0763,0.0634,0.0682,0.0554,0.0962,0.0585,0.0485,0.0593,0.0924,0.0608,–
L48C,0.063,0.0996,0.0626,–,0.068,0.0716,0.079,0.0596,0.0623,0.0717,0.0725,0.057,0.0725,0.0823,0.0544,0.0676,–,0.0547,–,–
L48E,0.0581,0.0563,0.0493,–,0.0645,–,–,–,–,0.0563,0.0586,0.0583,–,0.0604,0.0625,0.0502,0.0631,–,–,–
L48G,0.0692,0.0666,0.0566,0.0954,0.0698,0.0601,0.0722,0.061,0.056,0.0733,0.0575,0.0633,0.0665,0.0729,0.0651,–,0.0568,0.0483,0.0538,–
L48I,0.0811,0.103,0.0398,0.0533,0.101,0.0512,0.0533,0.0616,–,0.0736,–,0.0561,0.0599,0.0802,0.0564,0.0543,0.0633,0.0505,–,–
L48K,0.0538,0.0643,0.0659,–,0.0581,0.0757,0.0692,0.0603,0.0549,0.0571,0.0392,–,0.0595,0.0584,0.0604,0.055,0.0593,0.0632,–,0.0785
L48M,0.0834,0.0748,0.0721,–,0.0758,–,0.0548,0.0625,0.0613,0.0992,0.0729,0.0552,0.0586,0.0902,0.0549,–,0.066,0.0703,–,–
L48N,0.0687,0.0486,–,–,–,0.0576,0.0729,0.0615,0.0466,0.0519,0.0472,0.0559,0.0614,0.0631,0.0701,0.0606,0.0589,–,–,0.0648
L48R,0.0545,0.063,0.0652,–,–,0.0564,0.0451,0.0656,0.058,0.0811,0.056,–,0.0601,0.0605,0.0631,0.0404,0.0456,0.0605,–,0.0625
L48S,0.051,0.0681,0.0264,0.0702,–,0.0285,0.0546,0.0596,0.0608,0.0509,0.0726,–,0.0548,0.0653,0.066,0.0491,0.0643,0.0539,–,0.0554
L48V,0.0629,0.0634,0.0834,–,–,0.0582,0.0615,0.0527,0.0653,0.0744,0.0579,0.0585,0.0598,0.0692,0.0559,0.0687,–,–,0.0909,–
L48W,0.061,0.0697,–,0.0684,0.0591,0.0424,0.0608,0.0588,0.0569,0.0651,0.053,0.0626,0.0564,0.0647,0.056,0.0701,0.0632,–,0.0497,–
N52W,0.0636,0.071,0.0582,0.0607,0.0747,0.0691,0.0448,0.0597,0.0609,0.0482,0.0697,0.0563,0.056,0.0707,0.0655,0.0492,0.0625,0.0529,0.0597,–
L56C,0.0941,0.085,0.0499,–,–,0.0701,–,0.0754,0.058,–,–,–,0.062,0.0861,0.0594,–,0.0663,–,–,–
L56M,0.113,0.0795,–,–,0.108,–,–,0.0435,0.0698,–,–,–,0.058,0.108,0.0629,0.0822,0.058,0.0585,–,–
L56P,0.0286,–,0.0519,0.048,–,0.0516,0.0332,–,0.0505,0.0496,0.0436,–,0.0481,0.0456,0.0248,–,0.0568,–,–,–
L56Q,0.0425,0.0448,0.0444,–,0.0815,–,–,0.0505,–,0.0543,–,–,0.0431,0.0455,0.0505,0.0716,0.0543,0.0276,–,–
L56S,0.0478,0.046,–,0.0584,0.0446,–,0.0385,0.0658,0.0524,0.0521,–,–,0.0423,0.0514,0.0468,–,0.0537,0.0391,–,0.0541
L56T,0.0551,0.0723,0.0611,0.0506,0.0591,–,0,0.0546,0.0895,–,0.0556,0.0568,0.0636,0.0665,0.0514,–,0.0445,0.0535,0.0487,0.0485
L56W,0.0474,0.063,0.0538,0.063,0.0658,0.0582,0.0543,0.0497,0.0533,0.0739,0.0577,0.0598,0.0516,0.0627,0.0633,0.0554,0.0636,0.0525,0.0465,–
L61G,0.103,0.095,0.0646,0.0821,0.114,0.106,0.0718,0.0773,0.0611,0.0939,0.0829,0.0565,0.0621,0.102,0.0678,0.0609,0.0579,0.0898,–,–
